{"source": "paper PMC4336329", "about": "(PLoS ONE, 2015)", "note": "Out of some 310,000 compounds screened, about 14,000 (4.5%) showed an effect of 50% or more. Effects have a minus sign here. The list shows a part of the results.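 Note: peak tail current of the secondary pulse compared with the same well before compound.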"}
{"target": "human ether-à-go-go-related gene (hERG) potassium channel (human, UniProt Q12809)", "sequence (Q12809 whole entry, looked up)": "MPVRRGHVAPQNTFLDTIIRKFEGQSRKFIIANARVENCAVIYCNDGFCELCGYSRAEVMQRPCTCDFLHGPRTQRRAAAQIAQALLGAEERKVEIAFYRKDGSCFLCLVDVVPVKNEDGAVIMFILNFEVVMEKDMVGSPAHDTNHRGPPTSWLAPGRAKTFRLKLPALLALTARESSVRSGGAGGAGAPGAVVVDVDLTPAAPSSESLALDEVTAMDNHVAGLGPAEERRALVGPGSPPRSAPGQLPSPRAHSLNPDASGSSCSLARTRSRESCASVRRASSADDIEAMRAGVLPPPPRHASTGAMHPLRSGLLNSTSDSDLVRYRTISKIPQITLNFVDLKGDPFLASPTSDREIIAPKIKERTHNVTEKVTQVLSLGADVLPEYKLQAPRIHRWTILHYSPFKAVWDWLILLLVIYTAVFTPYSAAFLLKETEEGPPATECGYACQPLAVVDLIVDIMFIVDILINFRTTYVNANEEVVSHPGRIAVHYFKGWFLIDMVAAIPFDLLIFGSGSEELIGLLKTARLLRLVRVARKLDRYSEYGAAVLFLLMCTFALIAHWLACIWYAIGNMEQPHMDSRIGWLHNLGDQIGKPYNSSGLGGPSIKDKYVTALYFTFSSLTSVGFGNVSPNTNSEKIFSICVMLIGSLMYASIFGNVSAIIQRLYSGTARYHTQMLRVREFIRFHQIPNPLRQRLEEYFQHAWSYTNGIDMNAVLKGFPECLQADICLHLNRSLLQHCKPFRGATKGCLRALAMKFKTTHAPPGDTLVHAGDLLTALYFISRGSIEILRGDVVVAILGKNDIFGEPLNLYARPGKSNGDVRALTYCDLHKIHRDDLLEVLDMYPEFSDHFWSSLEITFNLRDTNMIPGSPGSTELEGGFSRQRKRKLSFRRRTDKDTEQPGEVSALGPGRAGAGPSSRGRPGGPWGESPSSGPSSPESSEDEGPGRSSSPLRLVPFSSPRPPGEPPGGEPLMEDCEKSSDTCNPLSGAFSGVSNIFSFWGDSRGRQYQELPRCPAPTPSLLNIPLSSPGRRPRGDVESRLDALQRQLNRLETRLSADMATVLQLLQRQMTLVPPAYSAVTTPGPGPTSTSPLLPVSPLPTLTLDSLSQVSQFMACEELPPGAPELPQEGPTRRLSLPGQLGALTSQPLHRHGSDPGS", "assay": "primary screen, population patch clamp on CHO cells stably expressing hERG", "units": {"hERG current change (%, negative = inhibition) at 10uM": "%"}}
{"compound": "Cc1ccc(CN2C(=O)c3ccccc3NC23CCN(Cc2ccccc2)CC3)cc1", "hERG current change (%, negative = inhibition) at 10uM": 4.86}
{"compound": "Cc1ccc2c(c1)nnn2C1CCN(C(=O)NCc2ccccc2)CC1", "hERG current change (%, negative = inhibition) at 10uM": -76.7}
{"compound": "O=C(C1CC(=O)N(c2ccc(F)cc2)C1)N1CCN(c2ccc(F)cc2)CC1", "note": "(stereo not drawn)", "hERG current change (%, negative = inhibition) at 10uM": -73.1}
{"compound": "O=C(c1ccc2nc(Cc3cccc(Cl)c3)oc2c1)N1CCC[C@H]1CO", "hERG current change (%, negative = inhibition) at 10uM": 8.96}
{"compound": "CC1CCCN(CCCNC(=O)c2cc3c(Cl)nc4ccccc4c3s2)C1", "note": "(stereo not drawn)", "hERG current change (%, negative = inhibition) at 10uM": -55.6}
{"compound": "Nc1ccc(Sc2ccccc2)nc1", "hERG current change (%, negative = inhibition) at 10uM": -8.05}
{"compound": "CCSc1nnc(NC(=O)C(CC)Oc2ccccc2)s1", "note": "(stereo not drawn)", "hERG current change (%, negative = inhibition) at 10uM": -15.7}
{"compound": "Cc1ccc(C)c(SCc2noc(C(=O)NC(C)C)c2C(=O)O)c1", "hERG current change (%, negative = inhibition) at 10uM": 0.975}
{"compound": "Cc1c(C(=O)N2CCCCC2)c(S(=O)(=O)NCc2ccc(Cl)cc2)c(C)n1C", "hERG current change (%, negative = inhibition) at 10uM": -2.18}
{"compound": "CSc1ncccc1C(=O)N1CCN(S(=O)(=O)c2ccc(C)cc2)CC1", "hERG current change (%, negative = inhibition) at 10uM": -15.2}
{"compound": "C(=N\\C(/N=C/c1ccco1)c1ccco1)/c1ccco1", "hERG current change (%, negative = inhibition) at 10uM": -5.1}
{"compound": "Cc1ccccc1NC(=O)c1ccc(OCc2c(C)noc2C)cc1", "hERG current change (%, negative = inhibition) at 10uM": -5.45}
{"compound": "CCCOc1ccc(NC(=O)Cc2ccc(S(=O)(=O)N3CCOCC3)s2)cc1OCCC", "hERG current change (%, negative = inhibition) at 10uM": 6.32}
{"compound": "CN(Cc1ccccc1)c1nc2c(c(=O)n(C)c(=O)n2C)n1CCSc1ncccn1", "hERG current change (%, negative = inhibition) at 10uM": -13.7}
{"compound": "COc1ccc2[nH]c(C)c(CCNc3ccc(C(F)(F)F)cc3[N+](=O)[O-])c2c1", "hERG current change (%, negative = inhibition) at 10uM": -2.59}
{"compound": "O=C(O)C(=O)O.O=S(=O)(c1ccc(F)cc1)N1CCN(CC(O)COc2ccccc2F)CC1", "note": "(stereo not drawn)", "hERG current change (%, negative = inhibition) at 10uM": -14.5}
{"compound": "O=C(Cc1ccc(F)cc1)Nc1ccc(F)c([N+](=O)[O-])c1", "hERG current change (%, negative = inhibition) at 10uM": -10}
{"compound": "O=C(Nc1cccc(Cl)c1)C1CCCCC1", "hERG current change (%, negative = inhibition) at 10uM": -9.14}
{"compound": "COc1ccc(CC(=O)NCc2cccc(CNC(=O)Cc3ccc(OC)c(OC)c3)c2)cc1OC", "hERG current change (%, negative = inhibition) at 10uM": 23.6}
{"compound": "O=C(O)Cn1c(C(F)(F)F)nc2ccccc21", "hERG current change (%, negative = inhibition) at 10uM": 7.6}
{"compound": "Cc1ccc(S(=O)(=O)C2(C(=O)NCc3ccccc3Cl)CC2)cc1", "hERG current change (%, negative = inhibition) at 10uM": -15.2}
{"compound": "CN1CCN(S(=O)(=O)c2cccc(C(=O)N(C)Cc3c(F)cccc3Cl)c2)CC1", "hERG current change (%, negative = inhibition) at 10uM": -13.8}
{"compound": "O=C(Nc1ccc(NS(=O)(=O)c2ccccc2)cc1)c1ccc(Cl)cc1", "hERG current change (%, negative = inhibition) at 10uM": 4.9}
{"compound": "CN(CC(=O)Nc1ccc(F)cc1)CC(=O)Nc1ccc(F)c(F)c1F", "hERG current change (%, negative = inhibition) at 10uM": -28.9}
